According to paper PMC4336329 (PLoS ONE, 2015):
Screen size: about 310,000 compounds; about 14,000 (4.5%) showed an effect of 50% or more. The effect is printed as a negative number. This is one part of the list.

target: human ether-à-go-go-related gene (hERG) potassium channel (human, UniProt Q12809); experiment: primary screen, population patch clamp on CHO cells stably expressing hERG
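Further: peak tail current of the secondary pulse compared with the same well before compound.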

Chain of human ether-à-go-go-related gene (hERG) potassium channel (Q12809 whole entry, looked up): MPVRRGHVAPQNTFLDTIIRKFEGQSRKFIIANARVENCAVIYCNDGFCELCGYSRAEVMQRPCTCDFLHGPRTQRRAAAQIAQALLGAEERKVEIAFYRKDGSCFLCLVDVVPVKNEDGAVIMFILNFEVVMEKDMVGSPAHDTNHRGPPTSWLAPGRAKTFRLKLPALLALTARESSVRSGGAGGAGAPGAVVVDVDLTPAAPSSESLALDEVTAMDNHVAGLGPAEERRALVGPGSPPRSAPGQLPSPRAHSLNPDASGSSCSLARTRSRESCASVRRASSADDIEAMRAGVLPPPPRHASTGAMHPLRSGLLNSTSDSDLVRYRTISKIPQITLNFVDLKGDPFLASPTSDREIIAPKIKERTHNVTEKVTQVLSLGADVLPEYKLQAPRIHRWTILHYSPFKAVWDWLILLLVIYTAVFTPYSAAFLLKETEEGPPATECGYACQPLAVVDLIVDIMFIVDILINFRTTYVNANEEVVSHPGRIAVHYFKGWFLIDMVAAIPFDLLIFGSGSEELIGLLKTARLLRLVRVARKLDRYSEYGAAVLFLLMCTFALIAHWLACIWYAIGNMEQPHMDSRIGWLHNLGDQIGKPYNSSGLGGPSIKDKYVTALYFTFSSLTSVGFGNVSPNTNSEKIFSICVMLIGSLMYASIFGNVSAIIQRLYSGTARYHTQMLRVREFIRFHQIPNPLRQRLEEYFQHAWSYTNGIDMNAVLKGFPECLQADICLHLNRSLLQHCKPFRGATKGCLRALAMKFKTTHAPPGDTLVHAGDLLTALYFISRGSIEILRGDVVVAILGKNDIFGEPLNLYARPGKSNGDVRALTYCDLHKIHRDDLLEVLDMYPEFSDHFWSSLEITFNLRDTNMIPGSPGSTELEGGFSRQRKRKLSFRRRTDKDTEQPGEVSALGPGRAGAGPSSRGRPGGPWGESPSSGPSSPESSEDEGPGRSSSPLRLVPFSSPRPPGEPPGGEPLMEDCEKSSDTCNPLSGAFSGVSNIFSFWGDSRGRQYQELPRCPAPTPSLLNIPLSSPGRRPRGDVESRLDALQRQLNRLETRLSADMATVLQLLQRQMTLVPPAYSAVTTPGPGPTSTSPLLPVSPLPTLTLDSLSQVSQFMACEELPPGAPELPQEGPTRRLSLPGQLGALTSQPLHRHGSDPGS

| SMILES | hERG current change (%, negative = inhibition) at 10uM [%] |
| --- | --- |
| O=C(CN1CCC(C(O)(c2ccccc2)c2ccccc2)CC1)Nc1cc(Cl)ccc1Cl | 0.176 |
| NC(=O)Cc1nc(-c2ccc(F)cc2)cs1 | 0.939 |
| COC(=O)c1cc(S(=O)(=O)N2CCC(c3cc(OC)ccc3OC)C2)c[nH]1 (centres unmarked) | -6.4 |
| COc1ccc(CCNC(=O)c2ccc(-c3ccc([N+](=O)[O-])cc3Cl)o2)cc1 | 4.64 |
| COC(=O)C1CCN(C(=O)c2cc(=O)[nH]c3ccccc23)CC1 | 2.15 |
| Cc1ccc(C(=O)N2CCCC2)cc1S(=O)(=O)N1CCCCC1 | 8.68 |
| CC1CCN(C(=O)COC(=O)C2CCN(S(=O)(=O)c3ccc4c(c3)OCCO4)CC2)CC1 | -17.5 |
| S=C(Nc1cccnc1)NC1CCCC1 | 9.3 |
| O=[N+]([O-])c1cc(C(F)(F)F)ccc1NCCCCNS(=O)(=O)c1ccc(Cl)cc1 | 7.38 |
| O=C(Cn1cncn1)N/N=C/c1ccncc1 | 9.23 |
| C=CCNc1nc(-c2ccccc2)nc(-n2ccnc2)n1 | -9.66 |
| Cc1ccc(O)c(Cn2nnc3ccccc32)c1 | 10.6 |
| COC(=O)c1ccc(COc2ncnc3sccc23)cc1 | 16.8 |
| Cc1ccc(-c2cc(C(=O)O)c3ccccc3n2)s1 | 17.3 |
| C[C@H](NC(=O)c1nc[nH]c1C(=O)N(C)Cc1ccccc1)c1ccccc1 | 3.98 |
| Cc1nn2c(=O)nc3sc4c(c3c2[nH]c1=O)CCCC4 | 11.9 |
| Cc1ccc(NC(=O)COC(=O)/C=C/c2ccco2)cc1S(=O)(=O)N(C)C | -21 |
| O=C(c1cccc(S(=O)(=O)N2CCCCC2)c1)N1CCCCC1 | 5.7 |
| COCCNc1cnn(-c2ccccc2)c(=O)c1Cl | 19.5 |
| CC1CCCC(C)N1C(=O)COC(=O)COc1ccccc1C#N (centres unmarked) | 3.61 |
| COc1ccc(C2=Nn3c(nnc3-c3ccco3)SC2)cc1 | -63.6 |
| O=C(NCCc1ccccc1)c1cc(-c2ccco2)on1 | 11.8 |
| O=C(NCc1cccnc1)c1cc(-c2ccccc2)on1 | -16.4 |

| SMILES | hERG current change (%, negative = inhibition) at 10uM [%] |
| --- | --- |
| Cc1ccc(CN(C)C(=O)c2cc(COc3cccc(C(F)(F)F)c3)on2)o1 | -17.8 |
| CC(C)OC(=O)CSc1nnc(Cc2ccccc2)n1CC1CCCO1 (centres unmarked) | 4.89 |
| CC(C)(CO)NS(=O)(=O)c1ccc2c(c1)C(=NO)c1cc(S(=O)(=O)NC(C)(C)CO)ccc1-2 | 13.4 |
| O=C(O)c1ccc(Cl)c(S(=O)(=O)N(Cc2ccccc2)c2ccc(Cl)cc2)c1 | 23.2 |
| O=C(Nc1ccc(Cl)c(Cl)c1)Nc1cc(C(=O)N2CCOCC2)ccc1N1CCCCC1 | -23.3 |
| COc1cccc(CNC(=O)COC(=O)c2nc(Cl)c(Cl)c(Cl)c2Cl)c1 | 12.4 |
| O=[N+]([O-])c1nn(-c2ccc(Cl)cc2)n(O)c1=NCc1ccccc1 | -10.1 |
| O=C(/C=C/Sc1ccccc1)c1ccc(Cl)cc1 | 12 |
| CCOC(=O)CSc1nc2sc3c(c2c(=O)[nH]1)CCCC3 | 19.6 |
| CCCS(=O)(=O)Nc1c(OC)ccc2c1c(C(=O)OCC)c(C)n2C | -4.56 |
| COc1cc(/C=N/NC(=O)C(N)=O)ccc1OC(=O)c1cccs1 | 17.1 |
| CCOC(=O)C1(CC2CC2)CCN(Cc2cn[nH]c2-c2cccc(F)c2)CC1 | -91.6 |
| CC(C)NCC(O)COc1cccc2[nH]ccc12 (centres unmarked) | 13.3 |
| O=C(COc1ccc(Cl)cc1Br)NCC(c1ccco1)N1CCCC1 (centres unmarked) | -39.5 |
| Cc1ccc(C(=O)COC(=O)CCS(=O)(=O)c2ccccc2)cc1[N+](=O)[O-] | 14.5 |
| Cc1nc(-c2ccccc2)sc1C(=O)/C=C/c1ccccc1 | 4.34 |
| O=C(OCC(=O)N1CCc2ccccc21)c1ccc(Cl)nc1 | 8.87 |
| CN(C)C(=O)CSc1nnc2sc3ccccc3n12 | 6.04 |
| Cc1onc(C(=O)Nc2ccc(OC(F)(F)F)cc2)c1[N+](=O)[O-] | 17.4 |
| Cc1c(OC(C)C(=O)NCc2cccnc2)ccc2c3c(c(=O)oc12)CCCC3 (centres unmarked) | -16.3 |
| Cc1oc2cc3c(C(=O)N4CCCCC4)c(C)oc3cc2c1C(=O)N1CCCCC1 | 5.17 |
| O=C(O)C(=O)O.c1coc(CNC2CCCCC2)c1 | -2.66 |
| CCOC(=O)C1CCN(S(=O)(=O)c2ccc3c4c(cccc24)C(=O)N3)CC1 | -54.6 |

| SMILES | hERG current change (%, negative = inhibition) at 10uM [%] |
| --- | --- |
| CCNc1nc(SCCOc2ccc(C)cc2)nc(N(C)C)n1 | 9.02 |
| COc1cc(/C=C/C(=O)NC(=O)c2ccccc2O)ccc1OC(C)=O | -5.45 |
| COc1ccc(/C=C/C(=O)N(C)C2CCCCC2)cc1Br | -43.3 |
| Cc1cc(C)n(CC(=O)n2c3ccccc3c3ccccc32)n1 | 4.45 |
| COc1ccc(Cl)cc1NC(=O)CNc1ccccc1N1CCOCC1 | 64 |
| O=C(c1cc2ccccc2o1)N1CCCCCC1 | -5.92 |
| CCOc1ccc(NC(=O)c2ccc(N)cc2)cc1 | 4.11 |
| COc1ccc(-c2cc(C(F)(F)F)c3c(=O)n(-c4ccccc4)[nH]c3n2)cc1 | 27.5 |
| Cc1ccc(C(C(=O)NC2CCCCC2)N(C(=O)c2csnn2)c2ccccc2F)o1 (centres unmarked) | 14.9 |
| O=C(O)CN(Cc1ccccc1)S(=O)(=O)c1ccc2c(c1)OCCO2 | -1.41 |
| CC(=O)c1cccc(NC(=O)c2ccc(N(C)S(=O)(=O)c3ccc(C)cc3)cc2)c1 | 0.342 |
| O=C(N/N=C\c1c(O)ccc2ccccc12)c1ccc(Cn2cccn2)o1 | 9.2 |
| O=c1[nH]c(C2CCCN(S(=O)(=O)c3ccccc3)C2)nc2c1nnn2Cc1ccc(OC(F)(F)F)cc1 (centres unmarked) | 26.6 |
| O=C(CNS(=O)(=O)c1ccc(Br)cc1Cl)OCC(=O)N1CCCC1=O | -0.327 |
| COc1nc2c(C)cccc2cc1-c1noc(-c2ccco2)n1 | -8.01 |
| NC(=O)c1c(NC(=O)c2cc3ccccc3o2)sc2c1CCC2 | 7.21 |
| COc1ccc(NC(=O)Nc2ccc3c(c2)CCC3)cc1 | -16.6 |
| CCCCc1ccc(-c2csc(/C(C#N)=C\c3ccc(C)o3)n2)cc1 | 9.23 |
| CCCCc1ccc(NC(=O)CSc2nc(=O)n(CCN(CC)CC)c3c2CCCC3)cc1 | -66.7 |
| CCC(=O)N1CCC2(CC1)Oc1ccc(F)cc1C(=O)C21CC(c2ccc(Cl)cc2)=NO1 (centres unmarked) | -14.9 |
| O=C(c1ccco1)N1CCN(C(=O)c2ccc(-c3cccc(C(F)(F)F)c3)o2)CC1 | -79.9 |
| COc1ccccc1N1CCN(C(=O)CCc2nnc3ccc(N4CCC(C)CC4)nn23)CC1 | -33.5 |
| CC(NC(=O)c1ccccc1F)c1nnc(SCC(=O)N2CCN(c3ccccc3)CC2)n1C (centres unmarked) | -0.0704 |

| SMILES | hERG current change (%, negative = inhibition) at 10uM [%] |
| --- | --- |
| COc1ccc(CN2CC(C(N)=O)Oc3ccccc32)cc1F (centres unmarked) | 3.16 |
| Cc1oc2c(CN3CCCCC3C)c(O)ccc2c(=O)c1-c1ccc(Br)cc1 (centres unmarked) | -50.9 |
| Cc1cccc(C(=O)NCC(=O)N2CC(=O)Nc3ccccc32)c1 | 53.7 |
| CCCn1c(SCC(=O)Nc2ccccc2C(=O)OC)nc2c1c(=O)n(C)c(=O)n2C | -12.1 |
| CCCSC(=S)NC1CCS(=O)(=O)C1 (centres unmarked) | 2.53 |
| O=C(NCc1ccc(F)cc1)C(Cc1ccccc1)NS(=O)(=O)c1cccs1 (centres unmarked) | 11.3 |
| Cc1ccccc1Nc1c(-c2ccccn2)nc2c(C)cccn12 | -8.27 |
| C=CCOc1ccc(/C=C2/C(=O)ON=C2C)cc1OC | 23.7 |
| COc1ccc(C(=O)O)cc1N1C(=O)Nc2ccccc2N1O | 2.73 |
| COc1ccccc1C1CCN(Cc2ccc(C)cc2)CC1 | -90 |
| C=C(C)CN1C(=O)C2(OCCO2)c2cc(Br)ccc21 | -8.14 |
| CCOC(=O)C1=C(C)NC(C)=C(C(=O)OC)C1c1ccco1 (centres unmarked) | 2.06 |
| NC(=O)c1ccsc1NC(=O)C1CCCN1S(=O)(=O)c1ccc(Cl)cc1 (centres unmarked) | -47.7 |
| COc1ccc(CN(CCC(c2ccc(F)cc2)C2CCOC(C)(C)C2)C(=O)c2ccco2)cc1 (centres unmarked) | -52.1 |
| COC(=O)c1cn(C(=O)c2ccc(C)cc2)c2ccccc12 | 3.42 |
| CCCONC(=O)Nc1ccccc1[N+](=O)[O-] | 12.5 |
| COc1ccc(-n2c(SCC(=O)Nc3cc(C)on3)nc3c([nH]c4ccccc43)c2=O)cc1OC | 5.65 |
| CCCCN(C(=O)c1cc(=O)[nH]c2ccccc12)c1c(N)n(CCC)c(=O)[nH]c1=O | -6.04 |
| COc1ccc(NC2CCCN(C(=O)c3cccnc3)C2)cc1 (centres unmarked) | 14.8 |
| O=C(Nc1cccn(Cc2c(F)cccc2Cl)c1=O)NC1CCCCC1 | 11.3 |
